Each structure is given as a SMILES string. Hit rate of the full screen: of about 340,000 compounds, about 6,900 (2%) were called active. Rule as the data show it: active = inhibition above about 30%; inactive = below that, where a call was filed. The list shows a part of the results, in another mix than the full data. The source gives no active or inactive call for entries shown without one.

As a reminder, the inhibition is the relative decrease from the control value, in per cent.

The experiment concerns the target D(2) dopamine receptor (Homo sapiens) (UniProt P14416). Put plainly: HTS Assay for Allosteric Antagonists of the Human D2 Dopamine Receptor: Primary Screen for Antagonists. Also: 0% is about no effect. Conditions: HEK293 TREx D2 cells, calcium flux, dopamine EC80; at 10 µM; stronger effect = higher value. In short, it runs like this: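 Calcium mobilization kinetics were recorded at 1 s intervals in tetracycline-induced HEK293 T-REx D2 cells, first for 180 s after compound addition and then 180 s after EC80 dopamine.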
UniProt P14416, sequence (P14416 whole entry, looked up): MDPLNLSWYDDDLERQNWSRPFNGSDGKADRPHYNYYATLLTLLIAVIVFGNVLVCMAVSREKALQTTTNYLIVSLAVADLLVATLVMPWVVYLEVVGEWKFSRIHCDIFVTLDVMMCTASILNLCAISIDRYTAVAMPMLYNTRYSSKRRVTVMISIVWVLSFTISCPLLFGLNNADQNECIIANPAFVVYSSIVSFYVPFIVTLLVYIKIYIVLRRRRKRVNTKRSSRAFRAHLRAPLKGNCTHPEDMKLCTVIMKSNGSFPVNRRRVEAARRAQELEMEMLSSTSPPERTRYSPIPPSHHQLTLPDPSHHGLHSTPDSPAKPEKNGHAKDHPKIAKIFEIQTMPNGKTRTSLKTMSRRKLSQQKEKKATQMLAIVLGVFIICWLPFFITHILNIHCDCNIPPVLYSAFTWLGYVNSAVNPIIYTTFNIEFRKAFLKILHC
(Calcium flux is commonly read through the fluorescence of an indicator in the cells.)
Turning to `CCC(=O)N1CCc2cc(S(=O)(=O)CCC(=O)N3CCN(c4ccccc4Cl)CC3)ccc21`, the inhibition came to 12.3%. Then `CN(c1ncnc2c1c(-c1ccccc1)cn2-c1ccc(F)cc1)C1CCCCC1`, with 15.9%; and `CCOC(=O)c1cc(-c2ccccc2)n(CCC(=O)Nc2ccc(C(F)(F)F)cc2)c1C`, with -2.38%; and `Cc1ccc(N(Cc2cccs2)C(=O)c2ccccc2)cc1`, with -6.04%. Then `O=C(NNc1nc2cc3c(cc2s1)OCO3)c1cccc(F)c1`, with active: 40%.

Take `Cc1cccc(NC(=S)NC2CC3CCCC(C2)N3Cc2cccs2)c1C` (stereo unspecified): the inhibition is active: 68.6%. Then `O=C(NCCn1cc(SCc2cccc(F)c2)c2ccccc21)c1cccc(C(F)(F)F)c1`, with -7.15%; and `O=C1CCCC/C1=C/Nc1cccc(C(F)(F)F)c1`, with active: 33.9%; and `Cc1cccc(NC(=O)CSc2nc3ccc(NC(=O)COc4ccc(Cl)cc4)cc3s2)c1`, with -3.85%.

`Cc1c(NC(=O)Cc2ccc(F)cc2)cccc1-c1nc2cccnc2s1`: the inhibition turned out to be 17.5%. Turning to `Fc1ccc(-c2nc(-c3cccs3)c(-c3cccs3)[nH]2)cc1`, the inhibition came out at 10.5%.

Regarding `Cc1nn(-c2ccccc2)c2c1N(CC(=O)NCc1ccc(N(C)C)cc1)C(=O)CS2`, the inhibition amounted to 12.9%. Turning to `O=C(Nc1nnc(SCc2cc(=O)c3ccccc3[nH]2)s1)c1ccccc1`, the inhibition amounted to 0.376%. For `COc1cccc(-c2csc(N3CCN(C(=S)Nc4cccc(C)c4)CC3)n2)c1` the value was active: 85.8%; for `Cc1cc2n(n1)C(c1ccccc1)CC(c1ccc(Br)cc1)=N2` (stereo unspecified), active: 51.6%. `COc1ccc(Cn2ccc3nc(C)c(C(=O)Nc4ccc(F)cc4)cc3c2=O)cc1`: the inhibition was -11.2%.

Turning to `COCCCNC(=O)c1[nH]c2cc(OC)ccc2c1Sc1ccc(C)cc1`, the inhibition came to 26.2%. Then `CCn1cc(C(=O)NCCc2ccc(Cl)cc2)c(=O)c2cc(S(=O)(=O)N3CCc4ccccc4C3)ccc21`, with 8.37%; and `Cc1ccc(-n2nnc(-c3nsc(NC(=O)c4ccccc4C)n3)c2C)cc1Cl`, with -1.41%; and `O=C(Nc1ccc(F)cc1)N1CCN(c2ccc3nnc(-c4ccc(F)cc4)n3n2)CC1`, with -1.14%. Then `COc1cccc(CN2C(=O)N(c3ccc(C)cc3)C(=O)C2CC(=O)Nc2cc(OC)cc(OC)c2)c1` (stereo unspecified), with -10.4%; and `Cc1ccc(CNC(=O)C2CCN(C(=O)c3ccc(-n4ccc5ccccc54)s3)CC2)cc1`, with -7.14%; and `CCOC(=O)CC(NC(=O)CCc1c(C)nc2c(-c3ccccc3)c(C)nn2c1C)c1ccc(C)cc1` (stereo unspecified), with -8.61%. For `COc1ccc(-c2cn3c(n2)sc2cc(C(=O)NCc4cccs4)ccc23)cc1` the value was -14.1%. For `COc1ccc(-c2c3c(=O)n(C)c(=O)n(C)c3cn2-c2cccc(N)c2)cc1`, the inhibition worked out at 0.353%. As for `COc1cc(-c2noc(CSc3nc(-c4ccc(F)cc4)cc(=O)[nH]3)n2)cc(OC)c1OC`, the inhibition was -11.3%. Then `COc1ccccc1NC(=O)Cn1cnc2c(nc3n2CCCCC3)c1=O`, with -7.51%; and `Cn1c(=O)c2c(nc(OCc3cccnc3)n2Cc2c(F)cccc2Cl)n(C)c1=O`, with active: 43.3%; and `CCC1CCC(C(=O)NC(C(=O)NCCN(CC(C)C)CC(C)C)C(C)C)CC1` (stereo unspecified), with 6.12%. Turning to `CC(C)(C)c1ccc(CSc2nc3c(c(=O)[nH]2)CCCC3)cc1`, the inhibition came to 8.49%. For `O=C(Nc1ccc(Cl)c(C(F)(F)F)c1)C1CCCN(S(=O)(=O)c2cccc3cccnc23)C1` (stereo unspecified) the value was 2.2%.

Consider `Cc1ccccc1CNC(=O)c1ccccc1NC(=O)c1nsc2ccccc12`, for which the inhibition was 5.66%.

For `CC1CCN(S(=O)(=O)c2ccc3c(c2)c(=O)c(C(=O)NCc2ccc(Cl)cc2)cn3C)CC1`, the inhibition was -13.4%. For `COc1ccccc1NC(=O)C(C)OC(=O)CCNS(=O)(=O)c1ccc(C)c(C)c1` (stereo unspecified) the value was active: 40%; for `COc1ccccc1NC(=O)c1oc2ccccc2c1NC(=O)C(C)C`, -15.7%. Then `CC(C)(C)C1CCC(OCC(O)CN2CCN(c3ccccn3)CC2)CC1` (stereo unspecified), with active: 63.5%; and `COc1cccc(CN2CCN(Cc3ccc(O)c(OC)c3)CC2CCO)c1` (stereo unspecified), with active: 36.3%; and `O=C1CCc2cc(S(=O)(=O)NCc3ccc(Cl)cc3)cc3c2N1CC3`, with 3.52%. Then `COc1cccc(-c2nnc(-c3cc4cc(Cl)ccc4oc3=O)o2)c1`, with -15.4%; and `O=C(O)c1n[nH]c2c1CCCC2`, with active: 56.9%; and `Cc1ccccc1Cc1c(C)nc2nc(SCC(=O)NCCCN3CCCCC3)nn2c1C`, with active: 75.4%. Regarding `COc1ccc(-c2nc3scc(CCNS(=O)(=O)c4c(C)noc4C)n3n2)cc1OC`, the inhibition is -18.6%. Then `CCOC(=O)c1c(S(=O)(=O)NCC(=O)N2CCN(c3cccc(Cl)c3)CC2)c(C)n(C)c1C`, with -18.5%; and `COc1cccc(CNC(=O)c2[nH]c3cc(C)ccc3c2Sc2ccccc2)c1`, with 10.1%; and `COc1cccc(-c2nnc3n(Cc4ccc(C)cc4)c(=O)c4ccccc4n23)c1O`, with 20%. Then `CCCCN(Cc1cccs1)S(=O)(=O)c1cc(-c2cc(C)no2)ccc1C`, with -11.7%. `CCN1CCN(c2csc3ccc(F)cc3c2=O)CC1`: the inhibition is 13.1%. For `O=C(NCCc1ccccc1)c1cc(-c2ccc(Br)cc2)on1` the value was 20.3%; for `CCOC(=O)c1c(C)oc2ncnc(N3CCN(c4ccc(C)cc4C)CC3)c12`, 0.983%; for `Cc1sc2ncn(CC(=O)Nc3ccc(F)cc3Cl)c(=O)c2c1S(=O)(=O)N1CCN(c2ncccn2)CC1`, 17.8%. For `CCOC(=O)c1cccc(-n2nnc3c(sc4nc(C)c(Br)c(C)c43)c2=O)c1` the value was -14.1%; for `COc1ccccc1N1CCN(C(=O)c2c(-c3c(Cl)cccc3Cl)noc2C)CC1`, active: 40%; for `CCOC(=O)c1ccccc1NC(=O)Cn1c(=O)n(CCC(=O)NCc2ccccc2OC)c(=O)c2ccccc21`, 9.56%. Then `COc1ccc(NC(=O)c2ccc3c(SCC(=O)O)c4c(nc3c2)CCCC4)cc1OC`, with 5.99%; and `CCCOc1ccc(C(=O)Nc2ccc3oc(-c4ccc5ccccc5c4)nc3c2)cc1`, with -8.48%; and `CC(=O)c1cccc(NC(=O)CSc2nnc3ccc(-c4ccc(F)cc4)nn23)c1`, with -10.5%. As for `CN(C)c1ccc(CNC(=O)c2cnc3sc(N4CCCC4)nn3c2=O)cc1`, the inhibition was -14.7%.

As to `Cc1c(Br)c([N+](=O)[O-])nn1C(C)C(=O)Nc1ccc2c(c1)OCO2` (stereo unspecified), the inhibition was active: 40.4%. `COCCCNC(=O)c1[nH]c2ccccc2c1Sc1ccc(C)cc1`: the inhibition was -5.36%. In the case of `CC1CCCCC1Nc1ncnc2sccc12` (stereo unspecified), the inhibition was active: 36.4%. For `Cc1ccccc1NC(=O)Cn1c(=O)n(CCCCCC(=O)NCc2ccccc2Cl)c(=O)c2sccc21` the value was -3.34%.

These data come from PubChem BioAssay AID485344 (National Center for Advancing Translational Sciences (NCATS), 2010).
